# Reference: PMC11995724, “Antibiotic target discovery by integrated phenotypic and activity-based profiling of electrophilic fragments” (Cell chemical biology, 2025)
# Among all 3,200 compounds or so, about 110 (3.4%) showed an effect of 50% or more. The list shows a part of the results.
# Test system: T1, V. cholerae SAD30
# T1 construct: SAD30
# Set-up: species or system S. aureus MSSA476 (TSB) or V. cholerae SAD30 (LB); 384-well bacterial growth screen at 25 uM, OD600 relative to DMSO control
# Settings: relative growth, OD600, LB; 25 µM; inhibitor
row,Compound,% of control remaining [%]
1,"O=C(CCl)N1CCCCC1Cn1ccnn1 (centres unmarked) [5-E08, 2-chloro-1-{2-[(1H-1,2,3-triazol-1-yl)methyl]piperidin-1-yl}ethan-1-one]",98.5184
2,"C=CC(=O)NCc1cn2c(n1)CCCC2 [3-L20, N-({5H,6H,7H,8H-imidazo[1,2-a]pyridin-2-yl}methyl)prop-2-enamide]",95.9713
3,"CC(Cl)C(=O)N1CCC(n2c(=O)[nH]c3ccccc32)CC1 (centres unmarked) [6-N05, 1-[1-(2-chloropropanoyl)piperidin-4-yl]-2,3-dihydro-1H-1,3-benzodiazol-2-one]",91.7623
4,"CCOc1ccc(C=C(C#N)C(=O)Nc2nccs2)cc1 [9-C06, 2-cyano-3-(4-ethoxyphenyl)-N-(1,3-thiazol-2-yl)prop-2-enamide]",88.0354
5,"Cc1cc(C(=O)CCl)c(C)n1-c1ccon1 [10-F06, 2-chloro-1-[2,5-dimethyl-1-(1,2-oxazol-3-yl)-1H-pyrrol-3-yl]ethan-1-one]",37.8726
6,"COc1ccccc1N(CC(F)(F)F)C(=O)CCl [4-C18, 2-chloro-N-(2-methoxyphenyl)-N-(2,2,2-trifluoroethyl)acetamide]",96.0966
7,"C=CC(=O)N[C@@H](CN(C)C)c1ccccc1 [2-M19, N-[(1R)-2-(dimethylamino)-1-phenylethyl]prop-2-enamide]",89.5783
8,"O=C(CCl)NCC(F)(F)c1cccnc1 [6-C21, 2-chloro-N-[2,2-difluoro-2-(pyridin-3-yl)ethyl]acetamide]",97.8292
9,"C=CC(=O)NCc1nnc2ccccn12 [1-H19, N-({[1,2,4]triazolo[4,3-a]pyridin-3-yl}methyl)prop-2-enamide]",85.6502
10,"CC(C)NC(=O)C(C#N)=Cc1cccc(O)c1 [8-A22, 2-cyano-3-(3-hydroxyphenyl)-N-(propan-2-yl)prop-2-enamide]",101.768
11,"N#CC(=Cc1ccc(O)c(O)c1)C(=O)Nc1ccccc1F [8-B05, 2-cyano-3-(3,4-dihydroxyphenyl)-N-(2-fluorophenyl)prop-2-enamide]",69.1366
12,"N#CC(=Cc1ccc(-c2ccccc2F)o1)C(=O)NCc1ccccc1 [9-H10, N-benzyl-2-cyano-3-[5-(2-fluorophenyl)furan-2-yl]prop-2-enamide]",89.123
13,"O=C(CCl)c1c(-c2ccccc2)[nH]c2ccccc12 [10-E05, 2-chloro-1-(2-phenyl-1H-indol-3-yl)ethan-1-one]",90.863
14,"COc1cc(CC2CN(C(=O)C(C)Cl)C2)cc(OC)c1 (centres unmarked) [7-H07, 2-chloro-1-{3-[(3,5-dimethoxyphenyl)methyl]azetidin-1-yl}propan-1-one]",77.1849
15,"C=CC(=O)NCc1noc2c1CC(C)(C)CC2 [2-L07, N-[(5,5-dimethyl-4,5,6,7-tetrahydro-1,2-benzoxazol-3-yl)methyl]prop-2-enamide]",86.9536
16,"O=C(CCl)N1CCCC1c1nc(Cc2ccc(F)cc2)no1 (centres unmarked) [5-M10, 2-chloro-1-(2-{3-[(4-fluorophenyl)methyl]-1,2,4-oxadiazol-5-yl}pyrrolidin-1-yl)ethan-1-one]",94.6517
17,"Cc1ccc(CNC(=O)C(C)Cl)cc1 (centres unmarked) [5-O03, 2-chloro-N-[(4-methylphenyl)methyl]propanamide]",109.11
18,"O=C(CCl)c1c[nH]c(C(=O)N2CCCC2)c1 [10-A16, 2-chloro-1-[5-(pyrrolidine-1-carbonyl)-1H-pyrrol-3-yl]ethan-1-one]",108.475
19,"C=CC(=O)NCC1CCCC(C2CC2)O1 (centres unmarked) [1-M17, N-[(6-cyclopropyloxan-2-yl)methyl]prop-2-enamide]",85.0523
20,"Cc1cc(C(=O)CCl)c(C)n1-c1cccc([N+](=O)[O-])c1 [10-B16, 2-chloro-1-[2,5-dimethyl-1-(3-nitrophenyl)-1H-pyrrol-3-yl]ethan-1-one]",67.329
21,"CN(CC(=O)NCc1ccco1)C(=O)CCl [4-A18, 2-chloro-N-({[(furan-2-yl)methyl]carbamoyl}methyl)-N-methylacetamide]",107.828
22,"C=CC(=O)N1CCn2cccc2C12COC2 [1-K09, 1-{3',4'-dihydro-2'H-spiro[oxetane-3,1'-pyrrolo[1,2-a]pyrazin]-2'-yl}prop-2-en-1-one]",88.9387

row,Compound,% of control remaining [%]
1,"CC(Cl)C(=O)NCc1ncn(Cc2cccc(F)c2)n1 (centres unmarked) [7-K03, 2-chloro-N-({1-[(3-fluorophenyl)methyl]-1H-1,2,4-triazol-3-yl}methyl)propanamide]",90.5336
2,"CC(CC#N)Sc1ccccc1NC(=O)CCl (centres unmarked) [5-F14, 2-chloro-N-{2-[(1-cyanopropan-2-yl)sulfanyl]phenyl}acetamide]",94.6517
3,"CN(CCC1CCCCC1)C(=O)CCl [5-A06, 2-chloro-N-(2-cyclohexylethyl)-N-methylacetamide]",99.8634
4,"COc1ccc(CN2CCN(C(=O)CCl)CC2)cc1F.Cl [4-P18, 2-chloro-1-{4-[(3-fluoro-4-methoxyphenyl)methyl]piperazin-1-yl}ethan-1-one hydrochloride]",110.934
5,"CCCCNC(=O)C(C#N)=Cc1cc(C)ccc1C [9-C11, N-butyl-2-cyano-3-(2,5-dimethylphenyl)prop-2-enamide]",79.0619
6,"C=CC(=O)NCC(C)(C)C1CCCCC1 [1-E21, N-(2-cyclohexyl-2-methylpropyl)prop-2-enamide]",79.6712
7,"C=CC(=O)N1CCC(C(=O)Nc2ccn(CC(=O)N(C)C)n2)CC1 [2-H12, N-{1-[(dimethylcarbamoyl)methyl]-1H-pyrazol-3-yl}-1-(prop-2-enoyl)piperidine-4-carboxamide]",94.8278
8,Cc1cccc(-n2cc(C(=O)CCl)nn2)c1 [10-L07],5.299
9,"N#CC(=Cc1ccccc1OC(F)F)C(=O)NC1CCCCC1 [8-H18, 2-cyano-N-cyclohexyl-3-[2-(difluoromethoxy)phenyl]prop-2-enamide]",69.1366
10,"COc1cc(C=C(C#N)C(=O)Nc2ccccn2)ccc1O [9-P08, 2-cyano-3-(4-hydroxy-3-methoxyphenyl)-N-(pyridin-2-yl)prop-2-enamide]",90.4827
11,"CCc1nsc(N2CCCN(C(=O)C(C)Cl)CC2)n1 (centres unmarked) [7-B15, 2-chloro-1-[4-(3-ethyl-1,2,4-thiadiazol-5-yl)-1,4-diazepan-1-yl]propan-1-one]",78.903
12,"Cc1csc(CN(CC2CCCO2)C(=O)C(C)Cl)n1 (centres unmarked) [7-E09, 2-chloro-N-[(4-methyl-1,3-thiazol-2-yl)methyl]-N-[(oxolan-2-yl)methyl]propanamide]",81.8107
13,"C=CC(=O)Nc1cc(NC(=O)[C@@H]2CSCN2C(=O)CC)ccc1F [2-P18, (4R)-N-[4-fluoro-3-(prop-2-enamido)phenyl]-3-propanoyl-1,3-thiazolidine-4-carboxamide]",99.4596
14,"CC(Cl)C(=O)Nc1nc(-c2ccccc2)cs1 (centres unmarked) [6-L10, 2-chloro-N-(4-phenyl-1,3-thiazol-2-yl)propanamide]",85.6953
15,"CCOC(=O)c1c(NC(=O)CCl)sc2c1CCCC2 [6-I11, ethyl 2-(2-chloroacetamido)-4,5,6,7-tetrahydro-1-benzothiophene-3-carboxylate]",79.3251
16,"C=CC(=O)Nc1ccc(-n2nc(C)[nH]c2=O)cc1 [2-E16, N-[4-(3-methyl-5-oxo-4,5-dihydro-1H-1,2,4-triazol-1-yl)phenyl]prop-2-enamide]",91.8942
17,"CC(Cl)C(=O)N1Cc2ccoc2CC(C)(C)C1 (centres unmarked) [5-P21, 2-chloro-1-{7,7-dimethyl-4H,5H,6H,7H,8H-furo[3,2-c]azepin-5-yl}propan-1-one]",108.438
18,"CC(C)c1ccc(-c2cc(NC(=O)CCl)n(-c3ccccc3)n2)cc1 [4-C16, 2-chloro-N-{1-phenyl-3-[4-(propan-2-yl)phenyl]-1H-pyrazol-5-yl}acetamide]",99.2021
19,"C=CC(=O)NCc1cccc(NS(C)(=O)=O)c1 [3-K15, N-[(3-methanesulfonamidophenyl)methyl]prop-2-enamide]",91.0311
20,"N#CC(=Cc1csnn1)C(=O)Nc1ccc(Oc2ccccc2)cc1 [8-M12, 2-cyano-N-(4-phenoxyphenyl)-3-(1,2,3-thiadiazol-4-yl)prop-2-enamide]",62.2026
21,"C=CC(=O)N1CCC(C(=O)N[C@H]2CC[C@@H](CC#N)C2)CC1 (racemic) [2-G21, rac-N-[(1R,3S)-3-(cyanomethyl)cyclopentyl]-1-(prop-2-enoyl)piperidine-4-carboxamide]",101.776
22,"CC1=C(C#N)C(=O)N(C2CCS(=O)(=O)C2)C(=O)C1=Cc1ccco1 (centres unmarked) [9-O13, 1-(1,1-dioxo-1lambda6-thiolan-3-yl)-5-[(furan-2-yl)methylidene]-4-methyl-2,6-dioxo-1,2,5,6-tetrahydropyridine-3-carbonitrile]",90.6186
